# About 800 (1.6%) of roughly 50,000 compounds showed an effect of 50% or more. This is one part of the list.
# Target: Bcl-2-like protein 10 (Homo sapiens) (UniProt Q9HD36)
# Experiment: TR3 peptide-Bcl-B binding displacers, biochemical primary FP assay, phenotype converters (AID 1240);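 note: 0% = Bcl-B with tracer peptide and DMSO and 100% = tracer peptide lacking Bcl-B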
# Details: GST-Bcl-B / FITC-TR3 peptide fluorescence polarization; stronger effect = higher value; compound at 3.75 mg/L
# Chain of UniProt Q9HD36 (Q9HD36 whole entry, looked up): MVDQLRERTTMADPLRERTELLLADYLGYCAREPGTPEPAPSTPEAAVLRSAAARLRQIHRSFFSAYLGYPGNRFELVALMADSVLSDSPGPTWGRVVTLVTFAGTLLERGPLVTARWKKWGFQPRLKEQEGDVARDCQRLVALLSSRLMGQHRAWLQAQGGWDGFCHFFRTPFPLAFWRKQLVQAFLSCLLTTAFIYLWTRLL
row,SMILES,displacement
1,COc1ccccc1NC(=O)COc1cc(C)c(Cl)c(C)c1,-1.6%
2,COc1ccc(NC(=O)COc2ccc3ccccc3c2)cc1OC,-8.7%
3,CC(NS(=O)(=O)c1ccc(Br)cc1)C1C2CC3CC(C2)CC1C3 (centres undefined),7.9%
4,N#C/C(=C\c1cccc(OCc2ccccc2)c1)C(N)=O,9.1%
5,COc1ccc(C2C=C(Nc3ccc(C)cc3)C(=O)N2c2ccc(C)cc2)cc1OC (centres undefined),7.4%
6,COc1ccc(C2CC(C(F)(F)F)n3nc(C(=O)Nc4ccc(C(C)O)cc4)c(Cl)c3N2)cc1 (centres undefined),6.2%
7,O=[N+]([O-])c1cccc(/C=N/Nc2nnc3c(n2)[nH]c2ccccc23)c1,-9.1%
8,COc1ccc(C/C(N)=N/OC(=O)COc2ccc(Br)c(C)c2)cc1,-1.7%
9,Cc1nn(C(=O)COc2ccc(Cl)cc2)c(C)c1Sc1ccccc1[N+](=O)[O-],5.7%
10,COc1ccccc1/C=C/C(=O)c1c(-c2ccccc2)c2cc(Cl)ccc2[nH]c1=O,-15.5%
11,N#Cc1c(-c2cccc(Br)c2)c(C#N)c2nc3ccccc3n2c1N,109%
12,COc1ccc(C(=O)NC(=S)Nc2ccc(I)cc2)cc1,15.7%
13,O=C(c1ccc(Cl)c([N+](=O)[O-])c1)N1CCN(C/C=C/c2ccccc2)CC1,8.4%
14,Cc1cc(C)n2c(SCCO)nnc2n1,10.6%
15,COc1ccccc1N/C(=N/S(=O)(=O)c1ccccc1)c1ccccc1,11.9%
16,Cc1ccc(N=C(Nc2ccc(C)cc2)c2ccccc2)cc1,20.9%
17,O=C(COc1ccc(Br)cc1)Nc1cccc(NC(=O)c2cccc(Cl)c2)c1,15.6%
18,CCOC(=O)C1=C(C)N=c2s/c(=C\c3ccc(-c4ccccc4C(=O)O)o3)c(=O)n2C1c1cccc(OC)c1 (centres undefined),-23.4%
19,CCC(=O)NC(c1ccc(N(C)C)cc1)c1ccc2cccnc2c1O (centres undefined),-31.7%
20,CCC(C)c1ccc(NC(=O)C2CC2)cc1 (centres undefined),-3.9%
21,Cc1ccsc1/C=C1/SC(=S)N(CCCCCC(=O)O)C1=O,-9.6%
22,N#C/C(=C/c1ccco1)c1nc(-c2cc3ccccc3oc2=O)cs1,-1.2%
23,COC(=O)C1=C(C)N(c2ccccc2F)C(=O)/C1=C\c1sccc1C,7.8%

row,SMILES,displacement
1,Cc1ccc2[nH]c3nc(C)cc(C)c3c(=O)c2c1,2.7%
2,Cc1ccc(C(=O)c2ccc(Br)cc2)cc1S(=O)(=O)Nc1ccc(Cl)cn1,-0.7%
3,CCOC(=O)c1c(NC(=O)C2c3ccccc3Oc3ccccc32)sc(C(C)=O)c1C,-2.7%
4,Cc1ccc(C(C)C)c(OCC(=O)Nc2ccc(I)cc2Cl)c1,0.8%
5,O=C1/C(=C/c2ccco2)SC(=S)N1c1ccc(F)cc1,7.9%
6,CCOC(=O)C1=C(O)CCn2c1nc1ccccc12,9.5%
7,CCN(CC)S(=O)(=O)c1ccc(Cl)c(C(=O)Nc2nnc(-c3ccccc3)s2)c1,-5.1%
8,COc1ccccc1OCCCCOc1c(C)cccc1C,-11.6%
9,Cc1ccccc1OCCOc1ccc(/C=N/n2cnnc2)cc1,4.1%
10,Cc1ccc([N+](=O)[O-])cc1NC(=O)C1CC(O)CN1C(=O)Oc1ccccc1 (centres undefined),-9.7%
11,N#Cc1c(N2CCCCC2)ncc2cc3ccccc3nc12,0.8%
12,O=C(CSc1n[nH]c(-c2ccccc2)n1)c1ccc(Cl)cc1,9.4%
13,COc1ccccc1C1C(C(=O)OCCOc2ccccc2)=C(C)NC2=C1C(=O)CCC2 (centres undefined),-15.6%
14,O=C1c2ccc(-c3nc4ccccc4c(=O)o3)cc2C(=O)N1C1CCCCC1,7.3%
15,O=C(CCc1ccccc1)Nc1ccc2c(c1)OCCO2,-8.4%
16,C/C(=N\NC(=O)COc1ccc(Cl)cc1Cl)c1cccc([N+](=O)[O-])c1,29.4%
17,Cc1ccc(-c2cc(C(=O)NCc3ccccc3)c3ccccc3n2)o1,9.4%
18,COc1ccc(/C=C2\S/C(=N/N=C/c3ccc(OC)cc3)N(c3ccc(O)cc3)C2=O)cc1,14.4%
19,O=C(c1cccc(Cl)c1)N1CCc2ccccc21,5.1%
20,Cc1cc2c(cc1C)CN(c1cccc(C(=O)N/N=C/c3ccc(N(C)C)cc3)c1)C2,7.1%
21,CC(C)(C)N1C(=O)c2ccc(C(=O)Nc3cccc(I)c3)cc2C1=O,-14.8%
22,COC(=O)C1=C(C)NC(=O)NC1c1cc(Cl)c(O)c(OC)c1 (centres undefined),2.8%
23,Nc1nc(-c2ccccc2)c(-c2ccccc2)n1N,-22.5%

row,SMILES,displacement
1,CCN(CC)CCSc1nc(O)c(CCC(C)C)c(=O)[nH]1,-4.2%
2,O=C(O)c1ccccc1NC(=O)C12CC3CC(CC(C3)C1)C2,6.3%
3,O=C(c1cc2n(n1)C(C(F)(F)F)CC(c1ccc(Br)cc1)N2)N1CCCC1 (centres undefined),-2.8%
4,CC1(C)CC(=O)C(C=NCC2CCN(C(=O)Nc3ccccc3)CC2)=C(O)C1,0.4%
5,Cc1cc2c(nc3s/c(=C\c4cccc(Cl)c4)c(=O)n32)c(Br)c1C,2.5%
6,Cc1cc(Cl)cc(Cl)c1OCCNCCO,-1%
7,COc1ccc(CNCc2ccccn2)cc1OC,-7.3%
8,CCOC(=O)c1c(NC(=O)c2sc3cc(C)ccc3c2Cl)sc(C(N)=O)c1C,15.9%
9,O=C(c1ccc(OCc2ccccc2)cc1)c1coc2ccc(O)cc12,-9.6%
10,CCc1ccccc1NC(=O)c1c(-c2ccccc2Cl)noc1C,2.7%
11,C=CCc1cccc(/C=N/N=C2c3ccccc3Cc3ccccc32)c1O,13.9%
12,CCOCCOC(=O)C1=C(C)NC2=C(C(=O)CCC2)C1c1cc(OC)c(OC)c(OC)c1 (centres undefined),7.9%
13,Cc1ccc2nc(SCC(=O)Nc3nc4ccccc4s3)[nH]c2c1,-29.3%
14,CC(=O)Nc1nonc1-c1nc2ccccc2n1Cc1ccccc1,49.8%
15,Cc1cc(C)c2nc3s/c(=C\c4ccc(-c5cc([N+](=O)[O-])c(C)cc5C)o4)c(=O)n3c2c1,-20.8%
16,CC(=O)Nc1ccc(NC(=O)CCC(=O)O)cc1,14.3%
17,CCN(CC)S(=O)(=O)c1ccc(N=Cc2c(C)[nH]n(-c3ccc(Cl)cc3)c2=O)cc1,-9.1%
18,CC(=C=CC(C)(C)C1OCC(C)(C)CO1)CCC=C(C)C,10.8%
19,COc1ccc(C(C)NC(=O)c2ccc(Br)cc2)cc1 (centres undefined),-13%
20,CCOC(=O)c1c(NC(=O)CSc2nncn2C)sc2c1CCCC2,12.2%
21,O=C1NC(=S)S/C1=C\c1cn(CCOc2ccccc2F)c2ccccc12,-62.3%
22,COc1ccc(C2CC(=O)C3=C(C2)Nc2ccccc2NC3c2ccc(F)c(F)c2)cc1 (centres undefined),8.2%
23,COc1ccc(S(=O)(=O)N(CC(=O)N2CCCC2)Cc2ccccc2)cc1,3.9%
